Hit rate of the full screen: of about 310,000 compounds, about 2,200 (0.71%) showed an effect of 50% or more. The effect is printed as a negative number. Some of the results follow.
target: human ether-à-go-go-related gene (hERG) potassium channel (human, UniProt Q12809); test: primary screen, population patch clamp on CHO cells stably expressing hERG
Sequence (Q12809 whole entry, looked up): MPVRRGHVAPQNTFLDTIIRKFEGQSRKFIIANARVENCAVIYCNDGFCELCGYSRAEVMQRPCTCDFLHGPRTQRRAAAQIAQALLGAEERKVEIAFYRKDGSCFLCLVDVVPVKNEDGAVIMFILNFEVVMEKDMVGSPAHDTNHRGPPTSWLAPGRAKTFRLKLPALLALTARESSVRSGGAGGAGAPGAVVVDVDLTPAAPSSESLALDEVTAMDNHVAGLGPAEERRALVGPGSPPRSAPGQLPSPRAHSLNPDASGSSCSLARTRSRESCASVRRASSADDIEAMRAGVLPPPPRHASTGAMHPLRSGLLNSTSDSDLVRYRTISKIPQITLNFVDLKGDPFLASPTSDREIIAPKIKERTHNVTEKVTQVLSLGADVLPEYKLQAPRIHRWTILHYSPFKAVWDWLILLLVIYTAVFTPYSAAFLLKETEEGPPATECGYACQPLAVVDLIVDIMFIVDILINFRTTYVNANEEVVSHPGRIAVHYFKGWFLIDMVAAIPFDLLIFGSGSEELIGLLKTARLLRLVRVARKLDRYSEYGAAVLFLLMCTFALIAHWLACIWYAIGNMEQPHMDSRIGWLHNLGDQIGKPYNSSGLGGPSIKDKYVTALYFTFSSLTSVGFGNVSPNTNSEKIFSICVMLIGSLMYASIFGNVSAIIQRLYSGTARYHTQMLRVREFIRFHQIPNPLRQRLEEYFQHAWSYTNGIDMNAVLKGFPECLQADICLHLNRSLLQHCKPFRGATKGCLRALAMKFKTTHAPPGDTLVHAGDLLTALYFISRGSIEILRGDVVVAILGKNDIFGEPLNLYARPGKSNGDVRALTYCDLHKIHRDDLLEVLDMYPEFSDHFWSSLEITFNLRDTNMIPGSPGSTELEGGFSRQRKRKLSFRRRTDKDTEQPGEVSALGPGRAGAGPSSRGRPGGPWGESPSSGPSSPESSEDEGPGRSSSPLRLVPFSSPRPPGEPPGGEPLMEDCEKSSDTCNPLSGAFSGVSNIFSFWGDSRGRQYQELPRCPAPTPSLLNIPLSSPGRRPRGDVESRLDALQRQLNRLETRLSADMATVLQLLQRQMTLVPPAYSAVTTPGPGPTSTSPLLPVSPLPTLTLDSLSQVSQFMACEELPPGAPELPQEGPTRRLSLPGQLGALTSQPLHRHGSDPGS

SMILES | hERG current change (%, negative = inhibition) at 1uM
Cn1c(=O)c2c(nc3n2CC(CO)O3)n(C)c1=O (stereo not drawn) | 9.66%
O=C(c1nc2nc(-c3ccccc3)cc(C(F)(F)F)n2n1)N1CCCCC1 | 7.8%
Cn1cccc1/C=N\NC(=O)c1cncc(Br)c1 | 8.6%
O=C(O)C1CCCC2CN3CCc4c([nH]c5ccccc45)C3C(O)C21 (stereo not drawn) | 12.7%
CSCCC(NC(=O)c1ccccc1Cl)C(=O)N1CCN(C(C)=O)CC1 (stereo not drawn) | 1.88%
O=C(CN1C(=O)CCSc2ccc(S(=O)(=O)N3CCOCC3)cc21)Nc1ccccc1Cl | -0.348%
CCOC(=O)c1nn(-c2ccc(C)cc2)c(=O)cc1OCC(=O)Nc1cccc(OC)c1 | 11.6%
CS(=O)Cc1cc(Sc2ccccc2)nc(-c2ccncc2)n1 (stereo not drawn) | -1.81%
COc1cc(NC(=O)c2cc(CC(C)C)on2)c(OC)cc1Cl | 21.7%
O=C(CN1CCN(S(=O)(=O)c2ccc(Cl)cc2)CC1)Nc1ccc(F)cc1F | -36.6%
Fc1ccccc1NC(=S)NCCc1ccccc1 | 6.57%
COC(=O)CCC(=O)Nc1ccc(Br)cc1 | -6.17%
Cn1c(Cc2cccc3ccccc23)nnc1SCC(=O)N1CCN(c2ccccc2)CC1 | 1.77%
CCN(C(=O)c1cc2c(=O)[nH]c3ccc(C)cc3c2s1)c1ccc(OC)cc1 | 9.9%
CCCC(NC(=O)C(C)NC(=O)CO/N=C1\C=C2CCC3C4CCC(C(C)=O)[C@@]4(C)CCC3[C@@]2(C)CC1)C(=O)O (stereo partly drawn) | 7.75%
CO/C=C\C=C/c1nnn(-c2ccc(Cl)cc2)n1 | 6.88%
Cc1c(NC2(C#N)CCCC2)c(=O)n(-c2ccccc2)n1C | 7.81%
COC(=O)c1cc(S(=O)(=O)N2CCCCC2)ccc1N1CCOCC1 | -6.09%
COc1ccc(NC(=O)c2ncn[nH]2)cc1 | 7.36%

SMILES | hERG current change (%, negative = inhibition) at 1uM
CCc1cc([N+](=O)[O-])cc(CC)c1N | 6.42%
OCCOCCNc1ncnc2c1cnn2-c1ccc(Cl)cc1 | 14.4%
N#Cc1nc(COc2ccccc2F)oc1NCCCn1ccnc1 | -11.8%
Cc1ccc(S(=O)(=O)N(Cc2cccc(C(F)(F)F)c2)C(=O)N2CCN(C)CC2)cc1 | 12.6%
COc1ccc(CCNC(=O)Cc2cccs2)cc1 | 16.8%
CC(Sc1ccc(Cl)cc1)C(=O)NNC(=O)c1ccncc1 (stereo not drawn) | 9.91%
CCc1nnc(NC(=O)c2cc(S(=O)(=O)N3CCCCC3)ccc2N2CCOCC2)s1 | 10.4%
O=C(/C=C/c1ccccc1[N+](=O)[O-])Nc1ccc(S(=O)(=O)Nc2ncccn2)cc1 | 2.04%
Cc1cccc(NC(=O)Nc2cccnc2)c1C | 10.1%
N#Cc1ccccc1N/C=C/C(=O)c1ccc(Cl)cc1 | 8.52%
COc1cccc(N(CC(=O)NCCSc2ccccc2)S(C)(=O)=O)c1 | 1.21%
Cc1cc(C(=O)CSc2cccc[n+]2[O-])c(C)n1-c1ccc(OC(F)F)cc1 | 5.13%
COCc1cc(=O)n2c(-c3ccccc3OC)n[nH]c2n1 | 4.92%
CCOc1ccc(Cl)cc1CSc1n[nH]c(CC)n1 | 5.18%
CC(CCc1ccccc1)NC(=O)C(=O)Nc1ccccc1 (stereo not drawn) | 7.05%
Cc1ccc(CNC(=O)C2CCC(=O)N(C3CC3)C2)cc1 (stereo not drawn) | 16.9%
CCN(c1ccccc1)c1cc(C)nc2ncnn12 | 4.67%
COc1cccc(CC(=O)N2CCN(S(=O)(=O)c3ccc(Br)cc3)CC2)c1 | -2.01%
Cc1cc(C)nc(NC(=NCCc2c[nH]c3ccccc23)NC(=O)Nc2ccc(Cl)c(Cl)c2)n1 | -5.19%

SMILES | hERG current change (%, negative = inhibition) at 1uM
O=C(c1cccc2ccccc12)n1nnc2ccccc21 | 9.06%
O=C(NC(C(=O)O)c1ccccc1)c1ccc(S(=O)(=O)N2CCOCC2)cc1 (stereo not drawn) | -0.891%
Cc1cc(-c2ccccc2)nc(SC(C(=O)O)c2ccccc2)n1 (stereo not drawn) | 3.67%
Cc1cc(-c2nnc(CCC(=O)NC(C)c3cccc4ccccc34)o2)no1 (stereo not drawn) | 7.45%
COc1ccc(-n2nnc3c(SCC(=O)OCc4ccccc4)ncnc32)cc1 | -5.61%
CC(C)[n+]1ccn(C2=C([O-])c3ccccc3C(=O)/C2=N\S(=O)(=O)c2ccccc2)c1 | 9.02%
CC(=O)Nc1nc2ccc(C(=O)NC3CCCCC3)cc2s1 | 6.1%
Cc1cc2nnc(SCc3ccccc3)n2c(N)n1 | -5.86%
COCCN(Cc1ccccc1)C(=O)c1cccc(S(=O)(=O)N(C)c2c(C)n(C)n(-c3ccccc3)c2=O)c1 | 7.28%
Cc1cccc(NC2=NC3(CCCCC3)N=C(N)N2)c1 | 1.24%
C/C(=C1/SC(N2CCOCC2)=NC1=O)c1ccc(Br)cc1 | 10.8%
COC(=O)CSc1nc2ccccc2o1 | 9.42%
CCOC(=O)N1CCN(Cc2nc3cc(NC(=O)c4cccs4)ccc3n2CC)CC1 | -0.465%
CC1CCC(NC(=O)C2c3ccccc3C(=O)N2Cc2ccc3c(c2)OCO3)CC1 (stereo not drawn) | 7.44%
O=C(NCc1cccnc1)C1CCN(c2ccc(S(=O)(=O)N3CCOCC3)cc2Cl)CC1 | 0.119%
CC(=O)Nc1cc(C(=O)N2CCc3ccccc3C2)ccc1Sc1ccc(C)cc1 | 3.94%
Cc1ccc(NC(=O)NC(=O)CN2CCCC2c2ccc3c(c2)OCCO3)cc1C (stereo not drawn) | -3.68%
Cc1cc(C(=O)c2ccccc2)c(NC(=O)CN2CCOCC2)s1 | 4.13%
Cc1ccccc1N1CCN(Cc2ccc3c(c2)OCO3)CC1 | 3.92%

Source: article PMC4336329 (PLoS ONE, 2015)
